Test results published in paper PMC5836133.
This is one part of the list. At the low end of the ranking the order means little.

tested on: T1, GST-NbGlk1(82-244); test: protein-binding microarray; settings: NbGlk1 is a Golden2-like transcription factor of Nicotiana benthamiana; high values mean tight binding; most listed sequences are background and not binding sites; double strand, one strand shown;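 further: rank-based score ranging −0.5 to +0.5 with E above 0.45 taken as significant binding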
T1 sequence: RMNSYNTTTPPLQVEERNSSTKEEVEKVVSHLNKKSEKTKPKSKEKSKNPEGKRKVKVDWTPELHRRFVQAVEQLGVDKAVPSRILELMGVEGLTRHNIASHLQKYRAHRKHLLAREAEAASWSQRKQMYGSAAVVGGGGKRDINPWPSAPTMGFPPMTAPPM

Sequence	binding signal [E-score]
AGCTATAT	0.0883
ACAGTAAT	0.217
ATACCCAT	0.151
AACGATCC	0.186
AACAGATA	0.271
CAGCCATG	-0.244
ACGCTAGC	-0.175
AATATATG	0.252
ATCTGCTG	0.291
AACACCTC	-0.0127
CAATGTGG	-0.136
AGTCTCCG	-0.27
ACCCACAT	-0.0499
AAGTATAG	-0.0105
ACGGGATA	0.144
AAACCGGG	-0.0679
CAACCGCA	-0.0718
AAACGACC	-0.218
AGTATCTA	0.305
ATCGTCCA	0.0817
ATGAGTTC	-0.0817
AAATCTAT	0.419
ATGTCTGC	-0.111
CACGAGAG	-0.112
AGGTCTCA	-0.308

Sequence	binding signal [E-score]
ACCAGCGC	-0.232
AGGGCTAT	-0.113
AGCTAGAG	-0.226
ACAACCTA	-0.187
ACGGGCCC	-0.263
ACGGCGAC	-0.181
AGTCTCAA	0.0516
AAAACCCC	-0.262
ACACGAGT	-0.0708
AACATCAA	-0.0122
AGACTACA	-0.199
AAAAATAG	-0.0519
CAACATGG	-0.0683
ACTTCTAA	0.063
ACCCGGGT	-0.246
ATATTTAC	0.251
ATCTGAAA	0.284
ACATTGAG	-0.000637
AGCAAGTG	-0.0454
ATAGGGTC	-0.188
AACTAATC	-0.0806
ACACGATC	0.307
ACACGTTG	-0.214
ACTTCTCA	0.023
ACGGATGG	-0.115

Sequence	binding signal [E-score]
AACCGTCA	-0.177
ACCTTTTG	-0.0927
CAACTAGG	-0.025
AGACCACT	-0.173
ATTCAGGG	0.0522
AAAAGATT	0.388
AGGTAACC	-0.16
AAAATAGA	0.152
AGACGAGC	-0.242
ACAGCCGG	-0.248
ACTGCCAT	-0.163
CAATAAAA	0.101
ATATCGCG	0.415
ACTGGCGC	-0.185
AGCTGATC	-0.0207
ACAATTTC	0.188
AGCTCTAC	-0.136
ACGTAAGC	-0.031
AGGGGCAG	-0.208
ACCGCCGC	-0.216
AACCCACC	-0.0964
AGGTAATA	0.0321
ATTTGATA	0.229
AAGCAAAC	-0.0763
AGGATGCG	-0.0637

Sequence	binding signal [E-score]
ACTCTGCA	-0.141
ACGTTTGA	0.0239
AAACACCA	-0.14
ATAAGGCA	0.008
AGTAGACG	-0.135
CACATCAC	-0.0541
AGCGTTAT	0.0607
ATTATGGG	-0.0105
AATTAAAA	0.101
CACGCACC	-0.129
ATTTGCTA	0.166
CAAGCCAC	-0.244
AGTAAGCG	0.0463
AGTGTTTA	-0.00854
ATATGTTC	0.119
AATGGTTG	-0.0741
ACGATAGT	0.0795
CAATAACC	-0.0686
ACAATTCA	0.0542
ACTCACTA	0.0221
AAAGCACA	0.0176
AGTTACAA	0.0865
AGTTAAAG	-0.00654
CAGCGCCG	-0.221
ATACCGTG	-0.0694

Sequence	binding signal [E-score]
ATTGCGAA	0.312
CAAACCGG	-0.0496
AGATTCTC	0.49
CAGACTCC	-0.278
AAGATGGA	-0.114
ATGCATAA	0.131
CAACGACG	-0.0596
AATACATG	0.0338
ATGGCGAG	-0.0265
AAGTAGAC	-0.115
AACGGATC	0.25
ATCGTCAA	0.231
ACAATGAC	-0.16
AGGCCGAG	-0.0882
CACTAGGA	0.0141
AATTCCTA	0.167
AGCATCGG	-0.0878
CAATTGCG	0.125
ATTAACTA	-0.00616
ACACACGT	-0.131
AGTCACCC	-0.0747
AGCGGAAC	-0.118
ATGGCCCA	-0.241
CAGCCTCG	-0.213
CAAAATTC	0.193

Sequence	binding signal [E-score]
ACATTGTA	-0.0769
ACCGCTGC	-0.212
AGTTTAGA	0.165
AGTCGGTC	-0.223
AGCACCCG	-0.294
AGAAGGGG	-0.191
ACGCACCT	-0.167
AGTTATAA	0.0355
CAATACAC	0.0913
AAGAGCTC	-0.362
AAATGTGG	0.0652
AGTACTAT	-0.00957
ATCTTTAA	0.259
ATACCGAG	0.0757
AATCTTTG	0.378
ATGTGGCA	-0.0851
AGCTGGCC	-0.346
CAAGCTCG	-0.152
AGAAATAA	0.185
AGTGATGC	0.0715
ACTTGTCT	-0.0907
CAGCAAGG	-0.077
ATTCGACG	0.153
ACATTCGG	-0.0432
CAGAACAG	-0.115

Sequence	binding signal [E-score]
ATAAGCTA	-0.0196
CACAAGTA	0.0812
ACTATCGG	0.0387
CAAACCCC	-0.307
ACTCCCAC	-0.131
ACTGTTCG	-0.0298
ACATGGGA	0.0526
AAGATGCA	-0.103
CAACCGTG	-0.0713
ACGCGGAG	-0.206
AGAGCCTG	-0.174
AGTTGCGG	-0.036
AGAAGCCA	-0.192
AACGAGAC	-0.0281
CAAAAGAA	0.00621
AACAATTG	0.0413
ATAGTTAC	-0.0488
CAGCATAA	-0.0585
AACCTAGC	-0.146
ATGCGGAG	-0.12
ACAGCCCT	-0.204
ATACCAGC	-0.0161
